The chains are these.
B1: CPEB3 Ribozyme (parent)
chain: UAACAGGGGGCCACAGCAGAAGCGUUCACGUCGCAGCCCCUGUCAGAUUCUGGUGAAUCUGCGAAUUCUGCUGUAUAUCUC

The source gives no read counts; variants with many changes may rest on few reads.

The variants in this data set derive from B1. Put plainly: self-cleavage, relative activity (ratio to wild type); higher = more cleavage; in vitro, sequencing. Put shortly:
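Libraries of CPEB3 self-cleaving ribozyme mutants came from rounds of error-prone PCR and carried barcodes, which DNA sequencing matched to variants. In vitro transcription used T7 RNA polymerase at 37°C for 5 hours, with a further 15 min in DNase I before EDTA stopped the reaction; the ribozymes cleaved during both steps. The RNA was reverse transcribed with template switching and sequenced on Illumina. Relative activity is the cleaved/total read fraction of a variant divided by that of the unmutated ribozyme, averaged over three batches with at least 5 reads.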
Take A5U A64G U69C U78A: the self-cleavage was found to be 0.55.
As to A5U A20U U31C, the self-cleavage worked out at 0.4.
Next, A5U G19A A20G U25G A45G: 0.09; A5U C40U U51C U54C: 0.37; A5U G6A U43C U54C A64U: 0.09.
Next, A5U U48A U60A U67C U72G: 0.12; A5U G7C G22C U72C: 0.1; A5U U25C C37A U49C G63U U78C: 0.11.
The figure for A5U G8A U51A is 0.29; for A5U U41A A56U U60A U69A U80A it is 0.11.
For the variant A5U A35G U69C, the self-cleavage was 1.03.
Next, A5U C11U A20G U26A A35G A45G: 0.9; A5U G7U A15G U58C: 0.26.
The figure for A5U U26C U31C U41C is 0.33.
Next, A5U C17U A45G U58C U60A: 0.3; A5U U25C U41A G63C: 0.36; A5U U41C A56U U67C: 0.29.
Turning to A5U C17U C39U C44A U72A, the self-cleavage amounted to 0.07.
Next, A5U G6A G36U: 0.13; A5U A56G U66C U72C: 0.3.
Next, A5U G7A U25A A28U: 0.28; A5U G8U C39U: 0.22; A5U G9U A20G G24A U25C A35U C38U: 0.05.
Regarding A5U A45G A47G U72A U76C, the self-cleavage turned out to be 0.44.
As to A5U U48C U74A, the self-cleavage was determined as 1.25.
Next, A5U U26C U60C U69A: 0.21; A5U G8U A18G C32A A45U C62U G70C: 0.03.
Next, A5U U31C A47G U48C U58C C59A: 0.1.
As for A5U G9A U25A A28U U31C U69A, the self-cleavage amounted to 0.04.
Next, A5U A21U C34U U48C U51C: 0.07; A5U U25G C38U U54C U60C: 0.21; A5U U25A G30A: 0.27.
Next, A5U A47G U49A A64U: 0.2.
In the case of A5U U41C A56G U67C, the self-cleavage was 0.23.
The figure for A5U G16A U31C U51A is 0.28.
In the case of A5U U26C A45G A47G A77U, the self-cleavage turned out to be 0.23.
Next, A5U A28G C50A A65G U72A: 0.19; A5U U25C U41C U66C U72C U74A: 0.19; A5U G6A G30A U66G U69A: 0.05.
Regarding A5U A28G U76A U78C, the self-cleavage came to 0.61.
For A5U U26C A56U A57G, the self-cleavage was determined as 0.34.
The figure for A5U G8C U78C U80C is 0.23.
A5U U31C A56U: the self-cleavage stood at 0.25.
The figure for A5U G9A A15U is 0.29; for A5U G19A A20U C32G A75U U78C it is 0.05.
Next, A5U C14A G36U U54A U69A: 0.18; A5U G9A U54C U66C U67A: 0.21.
A5U C14G A15G: the self-cleavage was 0.8.
Next, A5U C11A A18U A77U: 0.38.
Next, A5U U31C A45G A56G: 0.3; A5U A21U A56G A64G: 0.34.
For the variant A5U U26C U31C U48C, the self-cleavage worked out at 0.3.
In the case of A5U A28G U41C U51G U58C U69A, the self-cleavage is 0.19.
For A5U G8U A18G A21U A28G U78C, the self-cleavage worked out at 0.18.
For the variant A5U C29A G30U U43A A47G G70A, the self-cleavage amounted to 0.09.
As for A5U G16C C27A C37U A64G A77G, the self-cleavage was 0.04.
Next, A5U U25A U26A U80C: 0.63; A5U C38U U67C A75G: 0.12.
The figure for A5U A56U G61A is 0.25.
Next, A5U A28G A35U: 0.5.
As for A5U G30A U41C A56G, the self-cleavage turned out to be 0.21.
The figure for A5U G6C A18U G24A is 0.42.
The figure for A5U U26C A64G is 0.34; for A5U C11A A20G U31A A45G A56U it is 0.04.
In the case of A5U G10U A77G U80C, the self-cleavage stood at 0.23.
A5U A21G C40U: the self-cleavage was 0.12.
The figure for A5U G8A A35G U69A is 0.19.
Take A5U G19U A21G G24A U41G C79U: the self-cleavage was 0.43.
Next, A5U A47G A64U U66C U80A: 0.3; A5U U26C G70U: 0.28; A5U G10U A28G U51A G52A A64G: 0.05.
Next, A5U U26G A57G: 0.29; A5U U41C C59A: 0.32.
Take A5U C12G A28U U80C: the self-cleavage turned out to be 0.96.
The figure for A5U A45G U80C is 1.01; for A5U U26C U43A it is 0.34; for A5U C23A U60C A65G it is 0.13.
Take A5U A28G A35G A45U: the self-cleavage turned out to be 0.81.
The figure for A5U C11G G19A A20U A28C C81U is 0.06; for A5U A21U U25C U58C U60A it is 0.16.
Next, A5U G6A U48G: 0.08.
The figure for A5U C12U A18G U26C C59A A75U U76A is 0.12; for A5U A21G U43A U74C it is 1.14; for A5U U43C U51C G61A U76C it is 0.6.
Consider A5U C14G G24A C37U, for which the self-cleavage was 0.27.
The figure for A5U G33C U51A is 0.23; for A5U A21U U51C U60A it is 0.27; for A5U A35U A57G it is 0.65.
Turning to A5U U41C U72C, the self-cleavage was 1.13.
Next, A5U U41C U72A: 0.89.
With A5U U49A U54C U72C U80C, the self-cleavage amounted to 0.72.
The figure for A5U A21U A28U U51G C62G is 0.24; for A5U A45G U51A it is 1; for A5U A45G A56G A57G C81U it is 0.39.
A5U U26A A35U U41A U60C A75U U78C: the self-cleavage was determined as 0.1.
Next, A5U A21G U26A A35G A45G U78C U80C: 0.97; A5U U41A A45U C62U A64G: 0.14.
The figure for A5U G8C A35U U69A C79U is 0.14; for A5U C14A A18G U25C U43A U48C U60C it is 0.09.
The figure for A5U G10C A18U G19U U49C is 0.21.
A5U A35G U54C U76C U80C: the self-cleavage was 1.29.
The figure for A5U A28G U43A A57U A64G is 0.41.
The figure for A5U A20U U31C G33A A57U is 0.25; for A5U A35U U72A U80C it is 0.94; for A5U U26C U49A it is 0.62.
The figure for A5U A21G U41A U49A is 0.09.
On to A5U U26C G33U A64G, for which the self-cleavage is 0.25.
The figure for A5U U26A A28G A45G U66C is 0.24; for A5U U41A A57G it is 0.41.
Next, A5U U25A U41G U54A: 0.14; A5U C14A A18U A20G U25C: 0.08.
Next, A5U U31C A35G U51G A57G A65G U78C: 0.74; A5U C14U U41A A64G: 0.11; A5U U31A A47G U72A U78C: 0.6.
Turning to A5U G30A C32U U49C U60C, the self-cleavage came out at 0.22.
A5U U26A A35U A56U: the self-cleavage was 0.09.
Next, A5U A56U U67C: 0.49; A5U G6A A45G A57G U72A U76C: 0.09.
The figure for A5U A35U C40U is 0.3; for A5U G6C G7A C50U A57G U67C A77U it is 0.06.
The figure for A5U A21G U49A C59U is 0.12; for A5U A21G A35U U66A it is 0.09.
In the case of A5U C32U C37A U51C A56U C62G, the self-cleavage is 0.19.
As to A5U G30A U41C U60A U69C, the self-cleavage was 0.13.
The figure for A5U A56U A65G is 0.36; for A5U U49C A77G it is 0.46.
The figure for A5U U25C A35G U41A is 0.45.
Regarding A5U U25C U49A A65G, the self-cleavage is 0.09.
The figure for A5U U25C A56U U76C is 0.12; for A5U A64U U67C U72A it is 0.41; for A5U A56U U80C it is 0.73.
The figure for A5U G33U U43C A65U is 0.08.
The figure for A5U U43C U51C is 0.96; for A5U C12U C39U it is 1.07.
Regarding A5U U25C C39A U41G U51C U66C, the self-cleavage was 0.06.
Consider A5U A35U A65G U67A, for which the self-cleavage was 0.15.
As to A5U A35U U41C A56G G63A, the self-cleavage was 0.4.
Next, A5U A21G A56G G63A: 0.22; A5U G6A U54C U72C: 0.14.
For A5U G8U A56C U78C U80C, the self-cleavage came to 0.15.
Next, A5U A45U A47G: 0.47; A5U A21G U43C U72A U76A: 0.45; A5U A28G U49C U76C: 0.24.
The figure for A5U G6U A13U U48C A56U A77G is 0.06; for A5U U25C A64G it is 0.13; for A5U A56G U60C it is 0.4.
The figure for A5U G10A C14A U25C is 0.23; for A5U A21U U31A U67C U74C it is 0.1; for A5U A21G U25C A57G it is 0.36.
For the variant A5U C62A G63A, the self-cleavage is 0.4.
With A5U G10C A20U C40U, the self-cleavage was found to be 0.1.
Next, A5U U26C A47G U69A U80C: 0.44; A5U G9A C12U U25C A28G U41G G52A: 0.06; A5U C32A G61A A65U U76C: 0.13.
With A5U C12U U41C G42C U67C A75U, the self-cleavage came out at 0.05.
The figure for A5U C27U C62U U78C is 0.11; for A5U A64G U80C it is 1.06; for A5U C11A A15G U51A it is 0.27.
Next, A5U U25C C38U U66C: 0.19.
Next, A5U U31A U41G A75G: 0.57; A5U A28G G33A G53A A57G: 0.1; A5U G9A A15C A20G U51G A64G U78C: 0.06.
Take A5U G10A C39A U41A U49C A56U U72G: the self-cleavage came out at 0.1.
Next, A5U U26C C32U A35U G55A U80C: 0.12.
The figure for A5U U25G U69A is 0.21.
The figure for A5U U26C U69C U80C is 0.34.
Consider A5U U41C A56C, for which the self-cleavage worked out at 0.83.
